Assay results reported in patent publication US12433868B2 (priority 2010, dated 2025).

Legend:
clinical = settings: both, human, in vivo, po, 400 mg; for AUC: AUC0-τ; for AUC(0-inf): AUC0-∞
[1] = both, human, in vivo, po, 400 mg

| Compound | AUC (clinical; Geometric Mean) [ng·h/mL] | AUC (clinical; Median) [ng·h/mL] | AUC(0-inf) (clinical; Geometric Mean) [ng·h/mL] | AUC(0-inf) (clinical; Median) [ng·h/mL] | Cmax (clinical; Cmax, Geometric Mean) [ng/mL] | Tmax (clinical; Tmax, Geometric Mean) [h] | half-life (clinical; t1/2, Geometric Mean) [h] | AUC(extrap), Geometric Mean [1] [%] | AUC(extrap), Mean [1] [%] | AUC(extrap), Median [1] [%] | AUC0-τ, Geometric Mean [1] [ng·h/mL] | AUC0-τ, Median [1] [ng·h/mL] | AUC0-∞, Geometric Mean [1] [ng·h/mL] | AUC0-∞, Median [1] [ng·h/mL] | Cmax, Geometric Mean [1] [ng/mL] | Tmax, Geometric Mean [1] [h] | t1/2, Geometric Mean [1] [h] |
| --- | --- | --- | --- | --- | --- | --- | --- | --- | --- | --- | --- | --- | --- | --- | --- | --- | --- |
| O=C(NN1C(=O)C2C3C=CC(C4CC34)C2C1=O)c1ccc(C(F)(F)F)cc1 (single isomer, unassigned) [Form I, 4-trifluoromethyl-N-(3,3a,4,4a,5,5a,6,6a-octahydro-1,3-dioxo-4,6-ethenocycloprop[f]isoindol-2(1H)-yl)-benzamide] | 14800 | 14200 | 19000 | 17200 | 1030 | 3.5 | 24.7 | 15.748 | 17.444 | 13.214 | – | – | – | – | – | – | – |
| O=C(NN1C(=O)C2C3C=CC(C4CC34)C2C1=O)c1ccc(C(F)(F)F)cc1 (single isomer, unassigned) [Form V, 4-trifluoromethyl-N-(3,3a,4,4a,5,5a,6,6a-octahydro-1,3-dioxo-4,6-ethenocycloprop[f]isoindol-2(1H)-yl)-benzamide] | – | – | – | – | – | – | – | 12.369 | 15.275 | 12.465 | 19020.83 | 19398.5 | 20409.17 | 19465.47 | 1185 | 3.6 | 23.083 |
